This is an account of results in ChEMBL document CHEMBL4888484, “Replenishing the malaria drug discovery pipeline: Screening and hit evaluation of the MMV Hit Generation Library 1 (HGL1) against asexual blood stage Plasmodium falciparum ,using a nano luciferase reporter read-out” (2022).

SMILES strings stand for the structures. About 540 (0.36%) of roughly 150,000 compounds showed an effect of 50% or more. The list shows a part of the results.

The test concerns Plasmodium falciparum. Kind of test: Primary screen in NF54 nanoGlo assay, in single point, at 2uM, 72h; a lower Z score goes with more inhibition. Format: functional, Erythrocyte. As to conditions: timepoint 72 hour.
For the compound `CCc1sc(C(=O)NC2(c3ncon3)CCOCC2)cc1C`, the % Inhibition (as a rule, the change of the read-out against control, counted positive when it falls) was -16% and the Z score came to 2.22.
Taken in the same sequence, the figures for `CCC[C@@H](C(=O)NCCc1ccccn1)n1c(Cc2ccc(Cl)cc2Cl)nc2ccccc21` were -3% and 0.38.
On to `CC(C)c1cc(N(C)CC(=O)Nc2nnc(-c3ccco3)o2)n[nH]1`, for which the “% Inhibition” value is -2% and the Z score is on record as 0.27.
Consider `Nc1ccc(C2CC(=O)NC(=O)C2)cc1`, for which the “% Inhibition” value is recorded as -8% and the Z score is reported as 1.57.
Take `COc1ccccc1CC(=O)NCc1cc(C2CC2)ncn1`: the “% Inhibition” value is 14% and the Z score is -1.82.
For the compound `COc1cc(NC(=O)c2ccoc2)c(OC)cc1NC(=O)c1ccccc1`, the “% Inhibition” value is recorded as -20% and the Z score is recorded as 2.69.
On the same counts, the results for `Cc1cc(S(=O)(=O)[C@H]2CS(=O)(=O)C[C@@H]2N2CCC3(CC2)OCCO3)ccc1F` are -4% and 0.46.
As for `COc1nccnc1N(C(C)=O)S(=O)(=O)c1ccc(NC(C)=O)cc1`, the “% Inhibition” value came out at 36% and the Z score is -4.59.
As to `NC(=O)Cc1ccc(NC(=O)c2ccc(N3CCCC3)c(F)c2)cc1`, the “% Inhibition” value is given as -7% and the Z score was 0.92.
With `COC[C@]1(O)CCOC2(CCN(C(=O)C3CCCCC3)CC2)C1`, the “% Inhibition” value is given as -26% and the Z score stood at 3.84.
Turning to `O=C1CCN(C(=O)COc2ccc(-c3ccccc3)cc2Cl)CCN1`, the “% Inhibition” value came out at 38% and the Z score was -4.32.
In the case of `O=C(c1ccco1)N1CC[C@@H]2COCCN(Cc3ccncc3)[C@@H]2C1`, the “% Inhibition” value is given as -15% and the Z score was 1.98.
As to `NC(=O)c1ccc(NC(=O)c2cc3c(s2)CCCCCC3)cc1`, the “% Inhibition” value stood at 5% and the Z score was -0.73.
Regarding `FC(F)(F)c1csc(NCc2c[nH]nn2)n1`, the “% Inhibition” value is -12% and the Z score came out at 1.46.
For `Cc1cc(C)nc(Nc2ccc(O)c(C(=O)N3CCC[C@H](F)C3)c2)n1`, the “% Inhibition” value amounted to 0% and the Z score is -0.03.
As for `COc1ccc(CC(=O)Nc2ccc3ncnc(N4CCCCC4)c3c2)cc1Cl`, the “% Inhibition” value was -16% and the Z score is 1.53.
In the case of `COc1ccccc1COc1ccc(-c2noc(-c3ccc(F)cc3)n2)cc1OC`, the “% Inhibition” value is on record as -7% and the Z score was determined as 0.84.
In the case of `O=C(CN(C[C@H]1CCCO1)C(=O)c1ccc(Cl)cc1)Nc1nc(-c2ccc(Cl)cc2)cn1-c1cccc(Cl)c1`, the “% Inhibition” value is -1% and the Z score stood at 0.18.
Take `Cc1ccccc1Cc1nc(CNc2cccc(N3CCOC3=O)c2C)no1`: the “% Inhibition” value is given as -11% and the Z score came to 1.56.
As to `Cc1ccc(S(=O)(=O)NCc2ccco2)cc1C(=O)N[C@@H](C)c1ccc2c(c1)OCCO2`, the “% Inhibition” value is given as 0% and the Z score is -0.05.
For `Cc1noc(C)c1C(=O)NC[C@H](O)c1ccc(-c2ccco2)cc1`, the “% Inhibition” value is on record as 0% and the Z score is given as 0.01.
Turning to `CC(C)S(=O)(=O)c1cccc(C(=O)Nc2onc3c2CCC3)c1`, the “% Inhibition” value worked out at 6% and the Z score was -0.88.
Regarding `O=C(CN1CC[C@@](F)(c2cc(F)cc(F)c2)C1)Nc1cccnn1`, the “% Inhibition” value is given as -1% and the Z score was 0.1.
Regarding `CC(C)Cc1ncc2c(n1)CN(c1ncccc1C(N)=O)C2`, the “% Inhibition” value is -3% and the Z score was 0.43.
Taken in the same sequence, the figures for `CCS(=O)(=O)N1C[C@@H]2CN(C(=O)c3ccn(C)n3)C[C@]2(c2nc(C)no2)C1` were -11% and 1.42.
As for `O=C(Nc1ccc2c(c1)C(=O)NCC2)Nc1ccccc1C(F)(F)F`, the “% Inhibition” value is -7% and the Z score was 1.09.
On the same counts, the results for `O=C1C[C@H](NC2CCN(c3ccc4c(c3)CCC4)CC2)CN1Cc1ccccc1` are -7% and 1.5.
For `Cc1cc(C)c2[nH]c(C(=O)N3CCC(c4nnn[nH]4)CC3)c(C)c2c1`, the “% Inhibition” value turned out to be 8% and the Z score is listed as -1.26.
Taken in the same sequence, the figures for `Cc1nc(Nc2ccccc2)nc(Nc2ccccc2)c1NC(=O)c1ccc(F)cc1` were 0% and 0.07.
As to `CCc1cc(C(=O)NC[C@H](C)C(=O)O)oc1CC`, the “% Inhibition” value is on record as -2% and the Z score is 0.46.
In the case of `Cc1ccccc1OC[C@H](O)C(=O)N(Cc1ccncc1)C1CCCCC1`, the “% Inhibition” value is -8% and the Z score was found to be 0.98.
As to `O=C(CCN1CCCCO1)NC[C@@H]1C[C@@H]2C=C[C@@H]1C21CC1`, the “% Inhibition” value came to 3% and the Z score is listed as -0.36.
Regarding `CC1CC(NC(=O)OC(C)(C)C)CCN1Cc1cccc2cn[nH]c12` (configuration not stated), the “% Inhibition” value was 3% and the Z score is on record as -0.28.
For `Cc1nccn1CCN(C)Cc1nccn1C1CC1`, the “% Inhibition” value was 3% and the Z score is listed as -0.33.
`O=C(c1onc2c1CCCC2)N1C[C@@H]2CC[C@H]1CN(Cc1cscn1)C2`: the “% Inhibition” value is listed as -11% and the Z score stood at 1.11.
Consider `Nc1nc(CNC(=O)c2cc(-n3cccn3)ccc2Cl)cs1`, for which the “% Inhibition” value is -1% and the Z score was determined as 0.17.
Take `COC[C@H](C)n1ccc(NC(=O)N2CCC(c3c[nH]cn3)CC2)n1`: the “% Inhibition” value was 12% and the Z score is -1.51.
As to `Cn1ccc(NC(=O)CN2CCCn3nc(CO)cc3C2)n1`, the “% Inhibition” value is -8% and the Z score turned out to be 1.26.
Take `O=C(NCc1ccccc1F)c1cn(C2CCCCC2)c(=O)c2nnsc12`: the “% Inhibition” value stood at 34% and the Z score is listed as -3.79.
Consider `CCCNS(=O)(=O)c1ccc(NC(=O)N2CCNC(=O)[C@@H]2CC)cc1`, for which the “% Inhibition” value turned out to be 2% and the Z score is listed as -0.31.
Taken in the same sequence, the figures for `O=C(CC1CCCCC1)N(Cc1ccc(F)cc1Cl)Cc1c[nH]c2ccc(F)cc12` were -9% and 1.56.
Turning to `CO[C@H](C(=O)Nc1ccc2c(c1)CCCC(=O)N2)C1CC1`, the “% Inhibition” value was -6% and the Z score turned out to be 0.85.
On to `C[C@@H](c1ccccc1)n1cnnc1C1CCOCC1`, for which the “% Inhibition” value came out at 13% and the Z score was -2.05.
Take `CO[C@@H](C)c1nsc(N2CCC(c3cc(N)[nH]n3)CC2)n1`: the “% Inhibition” value is recorded as -22% and the Z score is 3.46.
Take `O=C(CN1CCN(c2ccc3c(c2)OCO3)C1=O)NCCc1ccc(F)cc1`: the “% Inhibition” value is given as -9% and the Z score worked out at 1.49.
As for `CC(C)[C@H](NC(=O)N1c2ccccc2NC(=O)[C@@H]1C(C)C)C(=O)N[C@@H](Cc1ccccc1)C(=O)O`, the “% Inhibition” value was found to be 6% and the Z score was -0.78.
Turning to `CC(C)C(=O)N1CCC2(CCCCO2)CC1`, the “% Inhibition” value was found to be 0% and the Z score worked out at 0.01.
`COc1ccc(Cl)cc1C(=O)N1CC[C@H](N2C(=O)CNC2=O)C1`: the “% Inhibition” value is recorded as 0% and the Z score was 0.08.
For `Cn1c(Cn2nc(C(F)(F)F)ccc2=O)cc(=O)n(C)c1=O`, the “% Inhibition” value is on record as -11% and the Z score was 1.39.
Turning to `c1csc([C@@H]2CCCCN2Cc2cscn2)n1`, the “% Inhibition” value is on record as -14% and the Z score came out at 1.77.
Turning to `COc1ccc2oc(C(=O)N3CC[C@H](Oc4nccnc4C#N)C3)cc2c1`, the “% Inhibition” value is -14% and the Z score was 2.34.
For `Cc1n[nH]c(CNc2nc(C(C)C)ns2)c1C`, the “% Inhibition” value is -5% and the Z score worked out at 0.79.
Regarding `COc1ccc(S(=O)(=O)Nc2ccc(N3CCCCCCC3)c(C(=O)O)c2)cc1Cl`, the “% Inhibition” value is on record as -7% and the Z score turned out to be 0.64.
Taken in the same sequence, the figures for `COc1ccc(CN2CCC(CNC(=O)c3cncnc3)CC2)c(OC)c1OC` were -4% and 0.38.
Take `CO[C@H]1CN(C2CCN(S(=O)(=O)c3ccccc3)CC2)[C@H]1c1ccncc1`: the “% Inhibition” value is listed as -11% and the Z score worked out at 1.41.
Taken in the same sequence, the figures for `Cc1nn(C)c(C)c1C(NC(=O)N1C[C@H](O)[C@@H](n2ccnn2)C1)C(F)(F)F` (some centres not stated) were -11% and 1.47.
With `CCc1noc(CNC(CC)(CC)CNC(=O)OC(C)(C)C)n1`, the “% Inhibition” value is reported as -10% and the Z score is 1.82.
`COCc1nc(C(=O)N[C@H]2CCCN(c3cccc(F)c3)C2)co1`: the “% Inhibition” value was determined as 6% and the Z score is on record as -0.71.
Consider `CCCc1cc(C(=O)N2C[C@@H]3NC(=O)CN(C)C(=O)c4ccc(C)c(c4)Oc4cccc(c4)CO[C@H]3C2)n(C)n1`, for which the “% Inhibition” value is on record as -1% and the Z score stood at 0.13.
As for `CC(C)COc1nc(-c2cccc(C(F)(F)F)c2)n(-c2ccc(NC(=O)c3ccc4ccccc4c3)cc2)n1`, the “% Inhibition” value was 0% and the Z score is given as -0.06.
For `CC(C)OC(=O)[C@@H]1CCCN1C(=O)Cc1cc(-c2ccccc2)on1`, the “% Inhibition” value is on record as -13% and the Z score was 1.16.
For the compound `COc1ccccc1C(=O)N1CCC2(O)CCCCC2[C@@H]1c1cc(OC)c(OC)c(OC)c1` (some centres not stated), the “% Inhibition” value is given as 0% and the Z score was -0.05.
On the same counts, the results for `O=C(c1cc(-c2ccccc2Cl)nc2ccccc12)N1CCN(C(c2ccccc2)c2ccccc2)CC1` are -11% and 1.53.
For `Cc1csc([C@@H]2CCCN2C(=O)c2ccc(Cl)cn2)n1`, the “% Inhibition” value is reported as -7% and the Z score was determined as 1.29.
For `CN(Cc1ccc(N2CCOCC2)cc1)Cn1c(C(F)(F)F)csc1=O`, the “% Inhibition” value is on record as -1% and the Z score came out at 0.15.
As to `Cc1cnc([C@H](C)NC(=O)N(C)Cc2ccn(C)n2)s1`, the “% Inhibition” value is given as -10% and the Z score stood at 1.59.
Consider `Cc1cc2c(cc1C)[C@H](C(=O)Nc1cn(C)c(=O)n(C)c1=O)CO2`, for which the “% Inhibition” value is -9% and the Z score stood at 1.21.
Take `Cc1ccnc(OC[C@H]2CCCN2C)c1`: the “% Inhibition” value is on record as 1% and the Z score is -0.25.
Turning to `O=C1NC(c2ccc(-c3ccc(Cl)cc3)o2)C(C(=O)c2ccccc2)C(O)(C(F)(F)F)N1` (configuration not stated), the “% Inhibition” value is -3% and the Z score was determined as 0.53.
For `CCO[C@@H](CCNC(=O)c1cccc(-c2ncn[nH]2)c1)C(C)C`, the “% Inhibition” value is -7% and the Z score is given as 0.96.
On the same counts, the results for `CO[C@@H]1CS(=O)(=O)[C@H]2CN(C(=O)Nc3ccc4c(c3F)CCNC4=O)C[C@@H]12` are -13% and 1.67.
Take `CC1(C)Cc2ccc3nc(N)nc(N)c3c2O1`: the “% Inhibition” value was -1% and the Z score came out at 0.14.
Taken in the same sequence, the figures for `O=C(NC[C@@H](c1ccsc1)n1cccn1)c1ccno1` were -5% and 1.08.
Take `N#Cc1ccc(CNC(=O)c2ccc3nc(-c4ccccc4)cn3c2)cc1`: the “% Inhibition” value is given as -16% and the Z score is reported as 2.02.
Consider `OCC[C@H]1CCCCN1CCN1CCN(Cc2ccccc2)CC1`, for which the “% Inhibition” value stood at 7% and the Z score is -0.86.
On the same counts, the results for `Cc1nc(C2(C)CCN(C(=O)c3noc(C)c3Cc3c(C)noc3C)CC2)no1` are -6% and 0.74.
For `CC(C)CC(=O)N1CC[C@H]2COC(=O)N2c2ccccc2C1`, the “% Inhibition” value is listed as -4% and the Z score was 0.68.
On to `CC12C(=O)N(c3ccc(OC(=O)c4ccccc4)cc3)C(=O)C1C1c3ccccc3C2c2ccccc21` (configuration not stated), for which the “% Inhibition” value is given as 2% and the Z score was -0.23.
For the compound `Cn1cccc1[C@@H](O)CCNC(=O)Nc1ccccc1`, the “% Inhibition” value is on record as -4% and the Z score was 0.63.
Taken in the same sequence, the figures for `Fc1ccccc1-c1noc(N2CCN(Cc3ccc4c(c3)OCO4)CC2)n1` were -9% and 1.4.
On the same counts, the results for `O=C(OCc1noc(C2CC2)n1)[C@H]1CC(=O)N(c2ccc3c(c2)CCC3)C1` are -6% and 0.94.
